The supplement of paper PMC3334620
Whole data set: some 33,000 sequences, median “E-score (-0.5 to 0.5)” near -0.012, cut for the highest 2% near 0.27. The list shows a part of the results.

Biological target: T1, Vhr1 (UniProt P40522)
T1 sequence: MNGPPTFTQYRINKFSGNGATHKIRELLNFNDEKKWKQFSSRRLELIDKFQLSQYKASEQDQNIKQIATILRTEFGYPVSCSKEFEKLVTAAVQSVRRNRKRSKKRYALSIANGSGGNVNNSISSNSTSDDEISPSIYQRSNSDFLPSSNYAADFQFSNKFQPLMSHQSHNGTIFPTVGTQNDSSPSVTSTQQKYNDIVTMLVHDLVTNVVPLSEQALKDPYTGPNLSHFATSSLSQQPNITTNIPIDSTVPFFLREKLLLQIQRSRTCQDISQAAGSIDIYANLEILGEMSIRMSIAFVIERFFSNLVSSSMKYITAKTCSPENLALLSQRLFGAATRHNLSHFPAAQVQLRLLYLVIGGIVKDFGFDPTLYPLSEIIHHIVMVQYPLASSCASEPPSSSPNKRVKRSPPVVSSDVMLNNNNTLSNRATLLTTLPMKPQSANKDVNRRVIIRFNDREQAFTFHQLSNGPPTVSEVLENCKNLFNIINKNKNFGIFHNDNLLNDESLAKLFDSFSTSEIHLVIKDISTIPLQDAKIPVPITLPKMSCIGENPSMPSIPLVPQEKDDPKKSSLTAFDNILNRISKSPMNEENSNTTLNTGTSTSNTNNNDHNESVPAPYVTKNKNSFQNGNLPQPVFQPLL
Assay: PBM E-score (8-mer binding enrichment) (E-score (-0.5 to 0.5)); higher = stronger / more preferred TF binding; most listed sequences are background and not binding sites
Conditions: protein concentration: 200 nM; construct: GST-full length
Summary of the method: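 GST-tagged yeast TFs (full-length or DNA-binding domain) were made by PURExpress in vitro transcription/translation and applied at about 100-200 nM to universal all-10-mer Agilent arrays. The arrays were made double-stranded by primer extension, on fresh or once-stripped slides. Bound protein was detected with fluorescent anti-GST, and scans were normalised with masliner. Each ungapped eight-base word, pooled with its reverse complement, received an E-score (modified Wilcoxon-Mann-Whitney statistic) from the Universal PBM Analysis Suite.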

Row | Sequence | PBM E-score
1 | AACGCGAA | 0.0891
2 | GTCGAGTA | 0.163
3 | GTTAGACA | 0.0943
4 | ACGCCGCC | 0.0117
5 | AGTGAGTA | 0.192
6 | CACTTTTA | -0.165
7 | AATCCGGA | 0.108
8 | AATGCGTG | 0.108
9 | CGCCTCAA | -0.157
10 | CGTGTGTA | 0.21
11 | CCGCTGAA | -0.0213
12 | CCTGCTCA | 0.0214
13 | ACTACGAG | 0.185
14 | GCCTTGAC | -0.167
15 | AAAAAGGT | -0.231
16 | AAGTAACA | 0.0225
17 | CTAGTAGC | -0.0231
18 | CCAGCGGC | 0.13
19 | GCCCAGAA | -0.202
20 | CCTTAGCG | -0.0778
21 | AAGGTCTA | -0.13
22 | AATCGCAT | 0.227
23 | ATTGAAGC | -0.163
24 | TATTTGAA | -0.138
25 | CCAACACA | 0.0929

Row | Sequence | PBM E-score
26 | ACTCATAC | 0.284
27 | CTTAGACA | -0.213
28 | ACTGTTAT | -0.0145
29 | AAGTAACT | -0.112
30 | ATCTGCAT | 0.181
31 | CCAGCCGG | -0.039
32 | TCAGTGGA | 0.0669
33 | ACAAACGA | 0.144
34 | AGTGATAG | -0.0174
35 | TGCACGAA | -0.00326
36 | TCAAAAAA | 0.0331
37 | ATCGCGAA | 0.22
38 | AAGGCGAT | -0.189
39 | CTGGGCGA | -0.0143
40 | CGAGTTGC | 0.0125
41 | ATCGACCG | -0.243
42 | GCCTCACA | -0.00274
43 | CGAAATCA | 0.146
44 | CGAGAAGA | -0.234
45 | CACTGAGG | 0.174
46 | CCAGAATC | 0.119
47 | GCTCTAAC | -0.0794
48 | ATTCTGAC | 0.012
49 | ATGTGAAG | 0.0331
50 | TGTAGTAA | 0.0329

Row | Sequence | PBM E-score
51 | AATTGAAA | -0.152
52 | CATCATTC | 0.0958
53 | GATAATCA | 0.301
54 | ATGAGTGA | 0.248
55 | TCAACCCA | 0.0928
56 | AGGTAAGC | -0.22
57 | CAGAAGTA | 0.00109
58 | CTCGGCTC | 0.128
59 | CATGGGGC | 0.0394
60 | GCAGCCAA | 0.0642
61 | GAGCCATA | 0.166
62 | AAACCATA | 0.0822
63 | AAGAGCAC | -0.0616
64 | CCACGCGA | 0.0212
65 | AAGATGAG | 0.00023
66 | GAGCTAGC | -0.0306
67 | CTCGCTAC | 0.0345
68 | GATAGTGA | 0.151
69 | CCAAGGGG | -0.063
70 | ACAGTCAG | 0.228
71 | ACAATTAA | 0.137
72 | CACCAACC | 0.0665
73 | CACACTGG | 0.0459
74 | AGAAGCGA | -0.0198
75 | CAATCAGA | -0.0178

Row | Sequence | PBM E-score
76 | CGTGTCGC | 0.215
77 | AACACTTA | -0.0632
78 | CATGGATA | 0.146
79 | GCGAAAAC | -0.245
80 | CGTTAACA | -0.14
81 | CGGGAGTC | 0.386
82 | ATAACAGG | -0.0728
83 | AATAACGT | -0.127
84 | ACCGGCGC | 0.164
85 | ATGTTGTG | 0.0309
86 | CATTCTTA | -0.0305
87 | AGGAACTG | -0.205
88 | ACCGCCAA | -0.0122
89 | TATTCCAA | -0.264
90 | TCGACCAA | -0.152
91 | GTGGCGTA | -0.0654
92 | GCGTAGAC | -0.214
93 | CTGTTACC | 0.0198
94 | TGAGATAA | 0.0124
95 | CATGCTGG | -0.00031
96 | CTCTGATC | -0.0383
97 | ATCCAAGA | 0.125
98 | CGCCAAAA | -0.0804
99 | ACTTCGAC | 0.0861
100 | GACGAGCA | -0.0703

Row | Sequence | PBM E-score
101 | ACGACAGA | -0.195
102 | GTGGAATA | 0.114
103 | ACTCCGCG | 0.261
104 | GGACCGGA | 0.0379
105 | AGGACCGG | -0.314
106 | GAATATCA | 0.1
107 | CGTGAAGA | -0.0802
108 | CTGGACGC | -0.148
109 | ACCAAAAC | 0.128
110 | ACCGGGAG | -0.118
111 | ATGTCTCC | 0.175
112 | TAACACTA | 0.173
113 | CTACTTGA | -0.0569
114 | ATGTGGAC | 0.0192
115 | GCTCTAGA | -0.133
116 | ATGGACGA | 0.178
117 | GGCAGCCA | 0.165
118 | CCTTCTTA | -0.152
119 | CAGATCCC | 0.0847
120 | ATAAGATC | -0.0282
121 | CACAACCG | 0.214
122 | CCGAGCTC | -0.0673
123 | AGCAACAT | -0.0984
124 | CCAGTGCA | 0.0186
125 | AGAAGATC | -0.173

Row | Sequence | PBM E-score
126 | CCCCGGGA | -0.0204
127 | ACTACCCA | 0.107
128 | CCTGCGGC | -0.108
129 | AAACCACC | -0.0923
130 | AAAGAATG | 0.0281
131 | GACCTGGA | 0.0571
132 | AACCTCCT | -0.202
133 | GCCCCACC | 0.265
134 | AGTGGCCC | -0.0635
135 | CAATCCGA | 0.0215
136 | AGCCTAAC | -0.117
137 | AGGTCATA | 0.0299
138 | GGACTAAC | -0.00735
139 | CAGTCGAG | -0.107
140 | ACATAAAT | 0.11
141 | CCTCGTCC | -0.128
142 | CCTCTGAA | -0.0939
143 | GGTATGAC | 0.231
144 | ATATGTTC | 0.217
145 | CCGTGCTC | 0.0127
146 | GGCCCAGA | -0.26
147 | AAGCCGAT | 0.045
148 | TTACAAAA | -0.0504
149 | ATAATCAC | 0.308
150 | GCTTGCTA | -0.124

Row | Sequence | PBM E-score
151 | AGTTGAGA | -0.0128
152 | GGCGCCAA | -0.122
153 | CGTCAGTC | -0.0345
154 | AAGTTTCA | -0.0619
155 | CGCACACA | 0.134
156 | GGCGGCCA | -0.061
157 | TATACTAA | 0.00615
158 | ATATTCGG | 0.0186
159 | ATTTACGC | -0.239
160 | AGGCCCAG | -0.192
161 | GATAGCCA | -0.0927
162 | CATGCTAC | 0.0473
163 | ACTATATA | 0.274
164 | CCCGACCC | 0.123
165 | ACCGAGTC | 0.254
166 | ACCGACAG | 0.102
167 | CTGATAAA | 0.0935
168 | GCACAGCA | 0.128
169 | AACAACGT | -0.0915
170 | GCACAGAA | -0.0823
171 | AGACGATC | -0.112
172 | ACTGGGAC | -0.0593
